Measurements: PubChem BioAssay AID1159614 (National Center for Advancing Translational Sciences (NCATS), 2016)
About 65 (0.1%) of roughly 45,000 compounds were called active. Calls follow the shape of the dose curve; as a rule, active = well fitted activation curve with a large enough effect; inconclusive = small, poorly fitted or top-dose-only effect; inactive = no such curve, though single readings can be large or run the other way. The list shows a part of the results.

These molecules were tested against Galactocerebrosidase (Homo sapiens) (UniProt P54803) (assay: A Novel Cell-Based Assay to Identify Small Molecules for B -Galactocerebrosidase). Conditions: 145M-Twi-hGALC-G270D cells (Twitcher mouse brain line with human GALC G270D), HMU-beta-Gal fluorescence, 48 h; series mostly up to 57.5 µM; activation: at the top concentration.
Outline: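 Mutant human GALC (G270D), stably expressed in a Twitcher mouse brain cell line lacking endogenous GALC, is measured in live-treated cells via 6-hexadecanoylamino-4-methylumbelliferyl-β-galactoside hydrolysis (0.1 mM final, pH 5.2) with fluorescent detection.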
Also: 0% is about no effect; nearly all actives have a fitted effect of over 65% in size.

Chain of UniProt P54803 (P54803 whole entry, looked up): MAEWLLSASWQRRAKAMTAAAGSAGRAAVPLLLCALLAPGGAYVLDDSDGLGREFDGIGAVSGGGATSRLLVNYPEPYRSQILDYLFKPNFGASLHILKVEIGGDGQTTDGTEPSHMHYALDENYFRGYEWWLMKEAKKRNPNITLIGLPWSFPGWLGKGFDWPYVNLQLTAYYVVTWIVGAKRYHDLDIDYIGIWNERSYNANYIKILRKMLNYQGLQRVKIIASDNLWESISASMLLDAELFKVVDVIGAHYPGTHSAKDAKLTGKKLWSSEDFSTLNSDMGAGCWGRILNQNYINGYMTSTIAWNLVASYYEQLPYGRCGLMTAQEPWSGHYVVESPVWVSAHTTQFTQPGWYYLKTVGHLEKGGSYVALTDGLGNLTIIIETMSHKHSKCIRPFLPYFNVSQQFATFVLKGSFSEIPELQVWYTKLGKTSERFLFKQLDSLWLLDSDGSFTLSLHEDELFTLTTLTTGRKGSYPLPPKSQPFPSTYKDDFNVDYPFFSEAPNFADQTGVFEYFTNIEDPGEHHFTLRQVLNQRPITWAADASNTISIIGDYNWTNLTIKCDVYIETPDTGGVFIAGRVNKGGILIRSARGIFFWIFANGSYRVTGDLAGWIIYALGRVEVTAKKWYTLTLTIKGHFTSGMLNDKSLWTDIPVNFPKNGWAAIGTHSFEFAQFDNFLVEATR

Compound	activation
CSc1nn(Cc2ccccc2C)c(NC(C)=O)c1S(=O)(=O)c1ccc(C)cc1	inactive: -9.02%
COc1ccccc1C(=O)Nc1ccc2nc(SCC(=O)N3CCCC3)sc2c1	inactive: -6.36%
Cc1ccc2nc(-c3ccsc3)c(Nc3ccc(C(C)C)cc3)n2c1	inactive: -13.6%
O=C(CCS(=O)(=O)c1nc(-c2cccs2)cc(C(F)(F)F)n1)Nc1ccc(Br)cc1	inactive: -15.3%
Cc1ccc(NC(=O)/C(C#N)=C\c2ccc(-c3ccc(Cl)cc3)o2)c(C)c1	inactive: -19.6%
COCCNC(=O)CCCn1c(SCC(=O)c2ccc(F)cc2)nc2c(sc3ccccc32)c1=O	inactive: -2.15%
CCOc1ccc(-c2c(C)nn3c(C)c(C(=O)Nc4cccc(Cl)c4C)cnc23)cc1OCC	inactive: -19%
COCCN1Cc2cccc(C(=O)Nc3ccc(C(=O)OC)cc3)c2C1=O	inactive: 0.498%
Cc1cc2cc(CCNS(=O)(=O)c3ccc(Br)cc3)c(=O)[nH]c2cc1C	inactive: -44.4%
Cn1c2c(c(=O)n(C)c1=O)C(c1cccc(O)c1)CC(=O)N2 (configuration not stated)	inactive: -9.61%
COc1cccc(NS(=O)(=O)c2ccc3[nH]c4c(c3c2)CCCCCC4)c1	inactive: -19.3%
Cc1cc(Br)cc(C)c1NC(=O)c1cnc2ccccn2c1=O	inactive: -3.41%
COc1ccc(NC(=O)C(NC(=O)Cc2cccs2)c2ccc(OC)cc2)cc1 (configuration not stated)	inactive: -10.9%
CCc1ccc(CN(C(=O)c2ccc(OC)cc2)C2CCS(=O)(=O)C2)cc1 (configuration not stated)	inactive: 1.78%
CCOC(=O)c1ccc(NC(=O)CC2Nc3cccc4cccc(c34)NC2=O)cc1 (configuration not stated)	inactive: -35.4%
Cc1noc(C)c1S(=O)(=O)Nc1ccc(C(=O)Nc2ccc(C(C)C)cc2)cc1	inactive: -7.01%
COc1ccc(-c2onc(C)c2C)cc1S(=O)(=O)N1CCc2ccccc21	inactive: 0.683%
CCC12CN3CC(CC)(CN(C1)C3c1cccc(OC)c1O)C2=O (configuration not stated)	inactive: 0.893%
COc1cc2c(cc1NC(=O)COc1ccc(Br)c(C)c1)oc1ccccc12	inactive: -12.7%
CCn1c(C(=O)NCc2ccc(C)cc2)cc2sc(Cl)cc21	inactive: -11.9%
COc1ccc(-c2nc3ccccc3s2)cc1NC(=O)c1ccc(C#N)cc1F	inactive: 8.45%
Cc1ccc2nc(N(Cc3cccnc3)C(=O)c3ccco3)sc2c1	inactive: -16.6%
COc1ccc(-c2c(C)c3ccc(O)c(CN4CCCCC4)c3oc2=O)cc1OC	inactive: -16%
CCc1ccc(CNC(=O)c2ccc(CS(=O)c3ccc(Br)cc3)o2)cc1 (configuration not stated)	inactive: -10.8%
CCc1nnc(SCC(=O)Nc2ccc(Cl)cc2F)c2cc3occc3n12	inactive: -19.3%

Compound	activation
CCOC(=O)Cn1c(=O)n(-c2ccccc2OC)c2nc(-c3ccccc3)nc(C(N)=O)c21	inactive: -1.4%
CCc1ccc(-n2c(SCc3nc(-c4cc(OC)ccc4OC)no3)nnc2-c2ccccc2)cc1	inactive: -10.5%
CCOC(=O)c1c(NC(=O)CCCOc2ccc(C)cc2)sc2c1CCC(C)C2 (configuration not stated)	inactive: -23%
Cc1cccc(N2CCN(C(=O)c3cn(C)c4ccc(S(=O)(=O)N(C)C)cc4c3=O)CC2C)c1 (configuration not stated)	inactive: -13.1%
CCOc1ccc(S(=O)(=O)NCCc2csc3nc(-c4ccc(OC)c(OC)c4)nn23)cc1	inactive: -14.4%
CCc1ccc(NC(=O)CC2C(=O)NCCN2C(=O)c2ccccc2OC)cc1 (configuration not stated)	inactive: -3.42%
Cc1nc(SCc2cc(=O)c3cccc(F)c3[nH]2)n[nH]1	inactive: -1.13%
CCOCCc1nn2c(=O)cc(COC(=O)COc3ccc(C)c(C)c3)nc2s1	inactive: -4.12%
CC(C)c1ccc(NC(=O)c2ccc3oc(=O)c(S(=O)(=O)c4ccc(F)cc4)cc3c2)cc1	inactive: -13%
COc1cn(CC(=O)Nc2c(C)cc(C)cc2C)c(CN2CCCCC2)cc1=O	inactive: -2.62%
COc1ccc(NC(=O)Cn2ncc3c(C)n(Cc4cccc(Cl)c4)c(C)c3c2=O)cc1	inactive: -10.5%
CC(C)c1ccc(NC(=O)CSc2ncnc3c2sc2ccccc23)cc1	inactive: -16.2%
COc1ccccc1CNCc1ccc(C(=O)O)s1	inactive: -3.43%
Clc1cccc(CSc2nc(NCCc3ccccc3)c3ccccc3n2)c1	inactive: -0.748%
COc1ccc(-c2nc3sc(CCNC(=O)Cc4ccc(Cl)cc4)c(C)n3n2)cc1	inactive: -39.9%
CCOc1ccc(CCNC(=O)CSc2nc3ccccc3nc2Cc2ccc(C)cc2)cc1OCC	inactive: 5.34%
CC(C)CCOc1ccc(Cn2c(=O)sc3ccccc32)cc1	inactive: -16.3%
COc1ccc(C(=O)Nc2ccc(N3CCN(c4ccccc4)CC3)c(C(=O)O)c2)cc1	inactive: -8.62%
COc1c(C)cccc1C(=O)Nc1ccc(Cl)c(-c2nc3cc(C)ccc3o2)c1	inactive: 7.3%
CCOc1ccc(CCNC(=O)C(CC(C)C)N2Cc3ccccc3C2=O)cc1OCC (configuration not stated)	inactive: -7.82%
CCOc1ccccc1NC(=O)Nc1ccc2nc(N3CCN(C)CC3)cc(C)c2c1	inactive: -10.2%
CC(=O)OC[C@H]1O[C@@H](n2ncc(=O)[nH]c2=O)[C@H](OC(C)=O)[C@@H]1OC(C)=O	inactive: 5.42%
CCN(CC)c1ccc(NC(=O)CN(C)S(=O)(=O)c2cccc3nsnc23)c(C)c1	inactive: -18.5%
CCN(CC)c1ccc(C(=O)NCc2ccc3c(c2)CCN3C(=O)c2cccc(C)c2)cc1	inactive: -12.4%
CCCCN(CC)CCCNC(=O)Cn1nc(CC)n2c(cc3sccc32)c1=O	inactive: -17.8%

Compound	activation
CSc1ncc(C(=O)NCc2ccc(F)cc2)c(-c2ccccc2)n1	inactive: 8.11%
CCOC(=O)c1ccc(NC(=O)CCCn2nc(C)c3sc4ccccc4c3c2=O)cc1	inactive: -5.71%
COc1ccc2c(c1)c1c(c(=O)n(CCc3ccccc3)c(=O)n1Cc1cccc(C)c1)n2C	inactive: 4.64%
COc1ccc(Nc2ncnc3c2cnn3-c2cc(Cl)ccc2C)cc1OC	inactive: -17.3%
Cc1cccc(-c2nc(SCCCOc3cc(C)c(Cl)c(C)c3)n3[nH]c(=O)cc3n2)c1	inactive: -4.54%
CCOc1ccc(OCCOCCn2c(-c3ccc(Cl)cc3)nc3ccccc3c2=O)cc1	inactive: -13.5%
O=C(Cc1ccc(-c2ccccc2)cc1)NCCS(=O)(=O)N1CCN(c2cccc(Cl)c2)CC1	inactive: -1.5%
CCCc1oc2ccc(NS(=O)(=O)c3ccc(OCC)cc3)cc2c1C(=O)OCC	inactive: -17.2%
Cc1ccc(C(=O)OC2=C(C(=O)c3ccccc3)N(C)S(=O)(=O)c3ccccc32)cc1	inactive: -9.48%
COC(=O)CC(=O)CSc1nc2cc(C(=O)NC(C)C)ccc2c(=O)n1CCc1ccccc1	inactive: -10.3%
Cc1oc2ncn(CC(C)C)c(=O)c2c1C(=O)NCc1cccc(Cl)c1	inactive: -13.2%
CCOc1ccc(Nc2sc(C(=O)c3ccc(F)cc3)c(N)c2S(=O)(=O)c2ccc(C)cc2)cc1	inactive: -21.3%
CC1c2ccccc2CN1NC(=O)c1ccc(Cl)c(S(N)(=O)=O)c1 (configuration not stated)	inactive: -15.4%
O=C(CN1C(=O)COc2ccc(S(=O)(=O)N3CCOCC3)cc21)NCc1ccc(Cl)cc1	inactive: 2.07%
CCN(C(=O)CSc1nnc(-c2cc3occc3n2C)n1-c1ccccc1C)c1ccccc1	inactive: -4.55%
CS(=O)(=O)c1ncc(Cl)c(C(=O)N2CCN(c3cccc(Cl)c3)CC2)n1	inactive: -11.9%
COc1ccc(Cl)cc1NC(=O)c1ccc(CN2C(=O)CCn3nc(C)cc32)cc1	inactive: -7.68%
COc1cc(Cl)c(C)cc1NC(=O)CNC(=O)Cn1ccc2ccccc2c1=O	inactive: -14.3%
CCc1ccc(-c2nc3c(c(SCc4ccccc4)n2)Cc2c(CO)cnc(C)c2O3)cc1	inactive: -1%
CC(C)Oc1ccc(CNC(=O)c2cc3cccc4c3n2CC(C)S4)cc1 (configuration not stated)	inactive: -16.1%
Cc1ccc(Cn2c(C(=O)Nc3ccc(Cl)cc3)cc3sccc32)cc1	inactive: -17.8%
Cc1ccc(-c2onc(C)c2C)cc1S(=O)(=O)N1CCC(C)CC1	inactive: 6.15%
Cc1c(C(=O)NCc2ccccc2Cl)sc2nc3n(c(=O)c12)CCCC3	inactive: -16.2%
CCOc1ccccc1CNC(=O)C(CC)n1nc(C)c2c(C)n(-c3ccccc3)nc2c1=O (configuration not stated)	inactive: -23.2%
CCOC(=O)N1CCC(NC(=O)c2ccc3c(c2)N(Cc2ccccc2)C(=O)c2ccccc2S3(=O)=O)CC1	inactive: 0.949%

Compound	activation
COc1ccc(Br)c2c1-c1nc(NC(=O)c3ccc(F)cc3)sc1C2	inactive: 4.65%
CC(C)Cn1cc(NC(=O)NCc2ccc(Cl)cc2)c2ccccc2c1=O	inactive: -24.8%
CCC(=O)N1c2ccccc2CC1C(=O)NCCCN1CCN(c2cccc(Cl)c2)CC1 (configuration not stated)	inactive: -15%
COc1ccc(C2c3c(n(C)c4ccccc34)C(=O)N2CC(=O)Nc2c(C)cc(C)cc2C)cc1 (configuration not stated)	inactive: -1.22%
Cc1ccc(C)c(NC(=O)CSc2nc(=O)n(CCN3CCOCC3)c3c2CCC3)c1	inactive: -15.4%
COc1cc2c(cc1OC)C(COc1ccc3c(C)cc(=O)oc3c1)N(C(=O)c1ccc(C)cc1)CC2 (configuration not stated)	inactive: -19.5%
COc1ccc(C(=O)CN2CCN(S(=O)(=O)c3ccc(F)cc3)CC2)cc1	inactive: -0.613%
COCCCNc1nc2c(c(=O)n(Cc3ccccc3)c(=O)n2C)n1C	inactive: -4.54%
Cc1ccc2c(c1)C(=O)OC(C(=O)Nc1ccc(C(=O)O)cc1)C2 (configuration not stated)	inactive: 6.41%
O=C(Nc1ccc(Cl)cc1)c1ccc2oc(=O)n(Cc3ccccc3)c2c1	inactive: -11.2%
CCOC(=O)c1nnn(CC(=O)NC(=O)Nc2ccccc2F)c1C(=O)OCC	inactive: -12.9%
CC1CCN(C(=O)CCS(=O)(=O)c2cc3c(cc2Cl)NC(=O)CO3)CC1	inactive: -2.22%
O=C(c1cc(-c2ccc(Br)cc2)n[nH]1)N1CCN(S(=O)(=O)c2ccc(Br)s2)CC1	inactive: 3.2%
CCCCSc1nnc2[nH]c(=O)cc(C)n12	inactive: -16.7%
CC(=O)N1CCC2(CC1)OC(=O)C(C)=C2C(=O)NCc1ccccc1Cl	inactive: -7.92%
COc1ccc(-c2cn3c(n2)sc2cc(C(=O)Nc4ccc(F)cc4)ccc23)cc1	inactive: 0.197%
Cc1ccc(Cl)cc1NC(=O)c1csnn1	inactive: -13%
Cc1cc(NC(=O)c2ccc(F)cc2)ccc1-c1cc2ccccc2oc1=O	inactive: -16.6%
CC(=O)OC1=C(C(C)=O)N(Cc2ccccc2)S(=O)(=O)c2ccccc21	inactive: -7.78%
CCOC(=O)c1ccc(N2C(=O)c3[nH]nc(-c4ccc(C)cc4)c3C2c2ccc(O)cc2)cc1 (configuration not stated)	inactive: -3.33%
Cc1ccccc1CSc1ncc(Cl)c(C(=O)NCc2ccccc2)n1	inactive: 1.99%
CCC(=O)N1CCc2cc(Br)cc(S(=O)(=O)CCC(=O)Nc3ccc(CC)cc3)c21	inactive: -5.26%
